Measured values from publication PMC12136788.
The other results are listed elsewhere or left out.

T1: UNK ZnF1-3 (human, UniProt Q9C0B0 31-174)
T1 sequence: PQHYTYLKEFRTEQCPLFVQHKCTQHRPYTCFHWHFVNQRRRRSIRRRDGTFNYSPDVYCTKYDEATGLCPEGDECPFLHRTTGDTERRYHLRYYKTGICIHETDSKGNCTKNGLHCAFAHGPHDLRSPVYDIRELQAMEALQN

B1: chr19:8871877:8871878:-_ENSMUSG00000071662_ENSMUST00000096261|mus_mus|FALSE|FALSE (ssRNA)
RNA: GGGAGUUCUACAGUCCGACGAUCGCCUGGCUGGAUCACACCAGCACCAAUAUUGUCGAUGGUGGUGACAGCAAUUACAAAGCCAUAUUUCCCAGUGCAGGUCCCCUCCACCUCGGUAAACAGCUUCUGCUUCACCGUGUUGAGCAACAGAGGAUUGAGCAUCA
B2: chrX:71549400:71549401:+_ENSMUSG00000019087_ENSMUST00000019231|mus_hu|mus_mus_mus_hu_False|48_68 (ssRNA)
RNA: GGGAGUUCUACAGUCCGACGAUCGCAGUAGGAAGAGGGAAGCUCUUCAGUCCAGUGCGCUGCAGGGAGAAACAUGAACAACACGGAACCAAUACUCCCCUCAACCCCCCCACUGGCACAGGGUCACACAAUCUGGGUCAAAGACAACAGAGGAUUGAGCAUCA
B3: chr2:91446484:91446485:+_ENSMUSG00000040549_ENSMUST00000099716|mus_mus|motif|central (ssRNA)
RNA: GGGAGUUCUACAGUCCGACGAUCCAACUUCUCAUCUGCCAUGUGUGUGCUGUAGAUGAGUCUUAGCUGCAUGAAUGUUGCGGUCAGAAACUGAUCAAUGUGGCCAGACAUAGCUUCAGCUUUGUCUUCCUGCCUCAGGACCUCCAACAGAGGAUUGAGCAUCA
B4: chr2:48026839:48026840:+_ENSG00000116062_ENST00000540021|hu_hu|hu_hu_hu_mus_False|8_98 (ssRNA)
RNA: GGGAGUUCUACAGUCCGACGAUCAUAGUGAGCCACUAGAGUCCUAAAUCUGGAACAGUGGCGGUCAUCCGAAAACUGGCCGAUGAAAAACUUGCCCAGUGAAGUGUCCACAAAGCAAACACCAUACGCACGAGUAUGACCAGACAACAGAGGAUUGAGCAUCA
B5: 48360997_48361988_690_CDS_ENSG00000134291_ENST00000256686|human|control|control (ssRNA)
RNA: GGGAGUUCUACAGUCCGACGAUCACAAUCCACAUAGUGAUGUGUCUCCAAGGAGCUCUGGGUCAUGAGGCCAAUGUAUGAAAUCUUCACUGAAGUUCGCAUGAAGAUCACUAUGUUGUGCACCAGGAUCUCAGGUACCGUGCACAACAGAGGAUUGAGCAUCA
B6: chr1:90180492:90180493:+_ENSG00000171488_ENST00000370454|hu_mus|FALSE|FALSE (ssRNA)
RNA: GGGAGUUCUACAGUCCGACGAUCUUUCAUCUGCUCCCGGACAUCUGAGGGCAGAGUCUCAAACAGAGCAUCUUCCACAACUAGCCCGGCUCGCUUCAGAGCCCGGCAGUCUCCCAGCUCGGGAGGGAGGACUUCAAAGUGAUUCAACAGAGGAUUGAGCAUCA
B7: 50683453_50683573_993_CDS_ENSG00000016082_ENST00000230658|human|control|control (ssRNA)
RNA: GGGAGUUCUACAGUCCGACGAUCCAGUGGCCGCGCUGGAUGCAGGGGACUGAGCGGGUCGCCAGCGCCUAGACUGGCCCUCUCCACCACAUCGUGGUCUGCUCGGCAGAAGAGACCGUCCUCCCGAAGCGCAAAUUCGUCCCCCAACAGAGGAUUGAGCAUCA
B8: chr2:65315729:65315730:-_ENSG00000138069_ENST00000409751|hu_hu|FALSE|FALSE (ssRNA)
RNA: GGGAGUUCUACAGUCCGACGAUCAACAUUGGACUUCUCAGCACCACCAGCUGUUGCUCCGGGACCCAUUCGCUUUUUAAUCUCAGCUGCCAUCGUCAUGAAAGACUGUUCUACAUUCGUUGCAUUCUUAGCACUGGUUUCCAACAACAGAGGAUUGAGCAUCA
B9: chr4:17845017:17845018:+_ENSG00000109805_ENST00000514176|hu_mus|hu_hu_hu_mus_False|18_108 (ssRNA)
RNA: GGGAGUUCUACAGUCCGACGAUCGCUUCCUAACUUAGUAUCUUCAUUAAGGAACUCUGCAAGGUUAAGUUUACUUUUCUGUAGCGCAGCUGUUUUGGCUCGUCUGGGUAAUCUCAUUUCAUUUCUGGAUGGUGGUUCAUGAUCCAACAGAGGAUUGAGCAUCA
B10: chr6:67234166:67234167:+_ENSMUSG00000036371_ENSMUST00000042990|mus_mus|motif|central (ssRNA)
RNA: GGGAGUUCUACAGUCCGACGAUCUGAAGAAUGCAUAUUCUCUGAAAAUUAUGAAAACAUCCCUGCUACCAAUACAUUUCGGAAUACAAAACUGACUAACAUAUUUUGUUACUUCUGUGUAGCUAGAGAAGUUCGUUUUCAAAACAACAGAGGAUUGAGCAUCA
B11: 118866371_118866491_1417_3pUTR_ENSG00000125629_ENST00000245787|human|control|control (ssRNA)
RNA: GGGAGUUCUACAGUCCGACGAUCUCAUUUUCACCCUGUAUCAAAACACUCCAAACUCUAUGAAACAACAUUAAAUUAGAAACUAACCACAAAUUAGGGCACUCAUAACUCAUACUGCUGUGAUUAGAAAAAUAAAAAGGCACACAACAGAGGAUUGAGCAUCA
B12: chr2:157388187:157388188:+_ENSMUSG00000067786_ENSMUST00000109526|mus_hu|FALSE|FALSE (ssRNA)
RNA: GGGAGUUCUACAGUCCGACGAUCUUUUGUAGAGGUGGUCCCUGUCCUCCAGGAGCUUACAAUCUAGCUGGGGAGACACAACUAAUGCACACUUAAACAAUCAGUACAAUUAGCGAUUACCACAAUAUUGACCACAACUGCAUGCAACAGAGGAUUGAGCAUCA
B13: chr12:100720429:100720430:+_ENSG00000136021_ENST00000360820|hu_mus|motif|central (ssRNA)
RNA: GGGAGUUCUACAGUCCGACGAUCGAAGGGUAGGAUAUCAUCAAGCACAAACCACUUAUCCAGGUACUCCAGGAUCUUCCCGGAGCACACUAAUGAAUUCACACGGACAGCAAGGGAAGACGUUUGUAAACAGGCAUUUUUAAUCAACAGAGGAUUGAGCAUCA
B14: 100764764_100764973_1268_CDS_ENSMUSG00000004040_ENSMUST00000127638|mouse|control|control (ssRNA)
RNA: GGGAGUUCUACAGUCCGACGAUCCUUGAUGACUAAGGGCCGGUCCGGGUGCAUGGGCAUGCAGGGCUGCCGCUCCACCACGAAGGCACUCUUCAUUAAGUUUCUGAACAGCUCCACGAUCCUCUCCUCCAGCAUGGGCCGGUGCAACAGAGGAUUGAGCAUCA
B15: chr8:104061119:104061120:+_ENSG00000155097_ENST00000518738|hu_hu|motif|central (ssRNA)
RNA: GGGAGUUCUACAGUCCGACGAUCCAGAUUCUCUUGAACUUUGUCUUUGCUAUCUUCCAAUACAUCAGCCAUGUAUUGAGCGGCUUUCUUAACCACUCCUUCUACAAAUGCAUCCAGUUUAGCCAGUUCAUCUGACAAGCCAACCAACAGAGGAUUGAGCAUCA
B16: chr13:33351070:33351071:+_ENSG00000083642_ENST00000315596|hu_hu|FALSE|FALSE (ssRNA)
RNA: GGGAGUUCUACAGUCCGACGAUCUGAUCCCACCUGAGCUGCUUUGAUAUAUGACAGCCUCUCAUAAUUACUGGUGUCACUAUUGUUGUAAAUGAAGAAUAGUUGAAUAUGGAGAGAUUAAGACACAAUUCAAAACACUUUUUACAACAGAGGAUUGAGCAUCA
B17: chr17:88387627:88387628:+_ENSMUSG00000005370_ENSMUST00000005503|mus_hu|FALSE|FALSE (ssRNA)
RNA: GGGAGUUCUACAGUCCGACGAUCAAAAUCAUCUCCAAAAAAAGUCUUCGUAAUGCAAGGAUGGCGUGAUCCUUUAAGCUCUAAGAAGGGGGGGGUAUCUUCCGGCAACAGAAUUACUGGGCGACACAUAGGACCAUCACCCCCCAACAGAGGAUUGAGCAUCA
B18: 64356606_64389926_236_CDS_ENSG00000118482_ENST00000393387|human|control|control (ssRNA)
RNA: GGGAGUUCUACAGUCCGACGAUCAUCCAUAAUAUCGUCAAGACCAACAACUGUUGAACAAGGCAUCUGGAAAUUGGGAUCAUUGCUAUCCAAAACAGGCAAACAGAACUGGUUACUUGCAGAUCCUAGCAUAGGAUCCUUAUCCAACAGAGGAUUGAGCAUCA
B19: chr10:61154807:61154808:+_ENSMUSG00000020088_ENSMUST00000020285|mus_mus|FALSE|FALSE (ssRNA)
RNA: GGGAGUUCUACAGUCCGACGAUCAACUCUUUCAUGAGGCAAAAGUCACUUUUUAUAUCUACAAUGGAAAAAAGGAAGGUGCUACACAGAGAGAUGAAAUUUCACAACAGUAUAAAAGCAAAGCCUGCUGAAACUGGUAACUGCCAACAGAGGAUUGAGCAUCA
B20: chrX:76939635:76939636:-_ENSG00000085224_ENST00000373344|hu_mus|FALSE|FALSE (ssRNA)
RNA: GGGAGUUCUACAGUCCGACGAUCUAACUUCAUAGCAGAAGUCAUUUCUGAAUUAUCUGCUGCCUGUUUUAGAAACUUAAUGUAACUGGAGUUCAUGUUGGAUGUAGUCUCAAUCAGUUUUGUUGUCUUCUUAAUCAUCUCUUUCAACAGAGGAUUGAGCAUCA
B21: 155054625_155055036_174_5pUTR_ENSG00000213079_ENST00000417268|human|control|control (ssRNA)
RNA: GGGAGUUCUACAGUCCGACGAUCAUGUUGUCGCUGCGGAGGCCCCGAGCCCGGCGGCGGAAGAGGCGGCGGCCACUGCACUGGGUGGGGAGAGCGAGACGCGGGCUGCUGCGUGGCCGCGAGGAGGGGGCGCUCCCCGCCGCUCAACAGAGGAUUGAGCAUCA
B22: chr2:217001844:217001845:+_ENSG00000079246_ENST00000392132|hu_hu|hu_hu_hu_mus_False|28_98 (ssRNA)
RNA: GGGAGUUCUACAGUCCGACGAUCACCAACUUGAGGAUUAGCUCUUUUGUCAUAAGCAUAUCGGACGAUGGCGACCAUGUUUAACUCAUCCAAAGCAUGAACGAGAGAGGAAAGUGCAACAGCUGCCGCCUCAUCAUCCUUUGCCAACAGAGGAUUGAGCAUCA

What follows are binders tested against T1, UNK ZnF1-3 (assay: nsRBNS (natural sequence RNA bind-n-seq); RBNS binding buffer (assumed for nsRBNS): 25 mM Tris pH 7.5, 150 mM KCl, 3 mM MgCl2, 0.01% Triton X-100, 500 ug/ml BSA, 20 U/ml SUPERase-In, 4 C; UNK is unkempt and MSI1 is Musashi-1; names of the RNAs are library labels; protein concentration not given here; high values mean tight binding).
Binder B1 has a binding signal of 0.804 enrichment R.
Binder B2 has a binding signal of 1.95 enrichment R.
B3 showed a binding signal of 0.531 enrichment R.
B4 was tested, and the binding signal was 1.07 enrichment R.
B5 was tested, and the binding signal was 0.76 enrichment R.
B6 showed a binding signal of 0.929 enrichment R.
Binder B7 has a binding signal of 1.35 enrichment R.
B8 showed a binding signal of 1.05 enrichment R.
For B9, the binding signal was 0.601 enrichment R.
Binder B10 has a binding signal of 0.496 enrichment R.
B11 was tested, and the binding signal was 1.75 enrichment R.
B12 showed a binding signal of 1.59 enrichment R.
B13 gave a binding signal of 1.4 enrichment R.
B14 was tested, and the binding signal was 0.636 enrichment R.
In the case of B15, the binding signal is reported as 0.723 enrichment R.
In the case of B16, the binding signal is reported as 2.2 enrichment R.
Work on B17 yielded a binding signal of 1.25 enrichment R.
Work on B18 yielded a binding signal of 0.999 enrichment R.
Binder B19 has a binding signal of 1.42 enrichment R.
With B20 the binding signal was 0.527 enrichment R.
B21 was tested, and the binding signal was 1.13 enrichment R.
B22 was tested, and the binding signal was 1.88 enrichment R.
